Results: publication PMC4336329 (PLoS ONE, 2015)
About 2,200 (0.71%) of roughly 310,000 compounds showed an effect of 50% or more. The effect is printed as a negative number. The list shows a part of the results.

Target: human ether-à-go-go-related gene (hERG) potassium channel (human, UniProt Q12809)
Assay: primary screen, population patch clamp on CHO cells stably expressing hERG

human ether-à-go-go-related gene (hERG) potassium channel, sequence (Q12809 whole entry, looked up): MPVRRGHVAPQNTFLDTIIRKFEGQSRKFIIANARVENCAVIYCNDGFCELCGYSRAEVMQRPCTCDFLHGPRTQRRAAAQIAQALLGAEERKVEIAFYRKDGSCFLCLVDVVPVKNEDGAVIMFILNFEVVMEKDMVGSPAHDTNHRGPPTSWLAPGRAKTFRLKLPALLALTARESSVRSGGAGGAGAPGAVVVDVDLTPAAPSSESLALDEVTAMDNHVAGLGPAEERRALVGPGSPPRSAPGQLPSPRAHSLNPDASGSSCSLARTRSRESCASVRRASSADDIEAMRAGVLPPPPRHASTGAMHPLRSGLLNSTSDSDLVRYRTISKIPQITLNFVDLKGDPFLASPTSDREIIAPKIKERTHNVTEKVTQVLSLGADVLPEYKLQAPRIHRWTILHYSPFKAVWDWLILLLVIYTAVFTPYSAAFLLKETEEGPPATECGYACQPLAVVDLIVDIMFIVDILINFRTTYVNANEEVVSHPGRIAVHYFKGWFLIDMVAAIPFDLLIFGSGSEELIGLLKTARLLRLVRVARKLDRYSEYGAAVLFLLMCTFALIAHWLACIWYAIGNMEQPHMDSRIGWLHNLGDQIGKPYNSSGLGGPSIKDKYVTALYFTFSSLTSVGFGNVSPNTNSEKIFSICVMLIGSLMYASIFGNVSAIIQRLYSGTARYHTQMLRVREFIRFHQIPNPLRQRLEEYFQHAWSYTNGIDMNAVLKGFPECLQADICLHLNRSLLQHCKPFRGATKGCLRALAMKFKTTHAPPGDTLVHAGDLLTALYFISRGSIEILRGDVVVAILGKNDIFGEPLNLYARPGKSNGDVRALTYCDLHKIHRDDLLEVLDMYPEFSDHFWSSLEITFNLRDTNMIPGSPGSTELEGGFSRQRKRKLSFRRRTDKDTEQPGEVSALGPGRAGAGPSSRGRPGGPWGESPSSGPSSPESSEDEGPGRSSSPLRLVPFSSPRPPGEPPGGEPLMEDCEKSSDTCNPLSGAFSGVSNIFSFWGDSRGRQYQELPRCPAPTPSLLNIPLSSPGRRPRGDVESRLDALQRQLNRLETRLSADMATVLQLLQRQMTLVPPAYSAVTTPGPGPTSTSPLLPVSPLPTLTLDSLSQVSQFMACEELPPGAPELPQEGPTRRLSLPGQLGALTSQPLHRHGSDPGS

SMILES | hERG current change (%, negative = inhibition) at 1uM
O=C(COc1ccccc1)NNc1nc2c(F)cccc2s1 | 4.03%
Cc1cccc(NC(=O)CO/N=C/c2ccc3c(c2)OCO3)c1 | 10.8%
Cc1cc2oc(=O)cc(Cn3nnc(-c4ccc(Cl)cc4)n3)c2cc1C(C)C | 12%
Cc1nc(SCc2ccccc2C#N)n[nH]1 | 19.3%
CC(C)(C)c1ccc(C(=O)NCCC(=O)Nc2cc(Cl)ccc2N2CCOCC2)cc1 | 12.9%
CCCCc1nnc(NC(=O)C(C)Sc2nc(C)cc(=O)[nH]2)s1 (stereo not drawn) | -3.18%
Cc1cc(=O)n2nc(N3CCC(C(=O)Nc4cccc(Cl)c4C)CC3)sc2n1 | 9.7%
CC1CCN(c2cc(N3CCOCC3)c([N+](=O)[O-])cc2F)CC1 | 11.1%
C[N+](C)(C)CCCN1C(=O)CCCC1=O.[I-] | 15.5%
CCCNC(=O)COCc1cc(-c2ccc3c(c2)OCO3)on1 | 13.9%
Cl.Fc1ccc(COc2cccc(CNCc3ccncc3)c2)cc1 | -1.04%
Cl.Cn1c(=O)c2c(nc(N3CCOCC3)n2CCCNC2=NCCCCC2)n(C)c1=O | 14.6%
CN(C)c1ccc(/C=N/NC(=O)c2ccccn2)cc1 | 15.3%
COc1ccc(CCNC(=O)CCn2c(=O)oc3ccccc32)cc1OC | 10.8%
O=C(NC1CCNCC1)C1CC1 | 16%
Cc1ccccc1C(=O)c1cccn1CC(=O)NCC1CCCO1 (stereo not drawn) | 3.49%
Cc1cc(C)c2sc(N(CCN(C)C)C(=O)c3cc(Cl)sc3Cl)nc2c1.Cl | 8.21%
CCCC(=O)c1ccc(N2CCCCC2)c(F)c1 | 14.5%
CCN(CC)S(=O)(=O)c1cc(F)ccc1OC | -0.995%
O=C1CC2(CCCCC2)Oc2ccc(Cl)cc21 | 3.55%
CCc1cc(OCCN(C)C)ccc1Cl.O=C(O)C(=O)O | 9.9%
CCCCn1c(SCC(=O)NC(=O)Cc2ccccc2)nc2ccccc2c1=O | 9.52%
Cc1ccn2cc(CCNS(=O)(=O)c3ccc4c(c3)OCCO4)nc2c1 | 9.15%

SMILES | hERG current change (%, negative = inhibition) at 1uM
COC(=O)c1[nH]c2cc(C)ccc2c1NC(=O)CN1CCN(c2ccccc2OC)CC1 | -0.715%
O=C(NCCc1nc2ccccc2[nH]1)c1ccc(Cl)c([N+](=O)[O-])c1 | -5.13%
CCN1CCCC1CNC(=O)C(=O)Nc1ccc(OC)cc1 (stereo not drawn) | 10.3%
COc1ccccc1CNC(=O)C1CC(c2ccc([N+](=O)[O-])cc2)=NO1 (stereo not drawn) | 7.68%
O=C(NCc1ccccn1)C(=O)NCc1ccccn1 | 8.97%
COc1ccc(-c2nc3n(n2)C(c2ccccc2)C2=C(CCCC2=O)N3)cc1OC (stereo not drawn) | 2.1%
CCOC(=O)/C(C#N)=C\c1cccnc1 | 12.9%
CC(C)C(=O)N1CCC(Cc2ccccc2)CC1 | 10%
Cc1nnc(SCC(=O)Nc2ccccc2)n(N)c1=O | 1.55%
COC(=O)c1ccc(C(=O)OC)c(NC(=O)/C=C/C(=O)O)c1 | 5.2%
O=[N+]([O-])c1cccc(/C=N/Nc2cc(Cl)nc(-c3ccccc3)n2)c1 | 11.7%
COc1cc(/C=N/NC(=O)Cc2nnc(NC(=O)c3ccccc3)s2)ccc1O | 10.3%
CCOc1ccc2[nH]c(=O)c(CN(CC3CCCN3CC)C(=O)NCc3ccccc3)cc2c1 (stereo not drawn) | -22.2%
O=C1CCCc2ccccc2N1 | 15.9%
COc1cccc(N2CC(C(=O)Nc3ccc(C(=O)OC(C)C)cc3)CC2=O)c1 (stereo not drawn) | 7.14%
CCC(C)NC(=O)c1cc(Cl)c(NC(=O)C2=C(C)OCCS2)cc1OC (stereo not drawn) | 7.01%
Cn1ccnc1SCC(=O)Nc1ccc(Cl)cn1 | 2.2%
CC(=O)c1ccc(NC(=O)Nc2sc(NS(=O)(=O)c3ccccc3)nc2C)cc1 | 14.9%
Cc1ccc(NC(=O)CSc2nnnn2C2CCCC2)cc1S(=O)(=O)N1CCOCC1 | 5.44%
Nc1c(N=Nc2ccccc2F)c(=O)[nH]n1-c1ccccc1 | 24.8%
CCOC(=O)Cc1csc(NC(=O)CSc2nc(-c3ccccc3)c(C#N)c(=O)[nH]2)n1 | 27.7%
Cc1cc(Nc2ccccc2)nc(N2CCN(C(=O)c3ccc4c(c3)OCO4)CC2)n1 | 1.39%
